# Data as given in publication PMC4336329 (PLoS ONE, 2015).
# The whole screen tested about 310,000 compounds, of which about 14,000 (4.5%) showed an effect of 50% or more. Effects have a minus sign here. The list shows a part of the results.
# Target: human ether-à-go-go-related gene (hERG) potassium channel (human, UniProt Q12809)
# Experiment: primary screen, population patch clamp on CHO cells stably expressing hERG
# 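Further: peak tail current of the secondary pulse compared with the same well before compound.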
# Chain of human ether-à-go-go-related gene (hERG) potassium channel (Q12809 whole entry, looked up): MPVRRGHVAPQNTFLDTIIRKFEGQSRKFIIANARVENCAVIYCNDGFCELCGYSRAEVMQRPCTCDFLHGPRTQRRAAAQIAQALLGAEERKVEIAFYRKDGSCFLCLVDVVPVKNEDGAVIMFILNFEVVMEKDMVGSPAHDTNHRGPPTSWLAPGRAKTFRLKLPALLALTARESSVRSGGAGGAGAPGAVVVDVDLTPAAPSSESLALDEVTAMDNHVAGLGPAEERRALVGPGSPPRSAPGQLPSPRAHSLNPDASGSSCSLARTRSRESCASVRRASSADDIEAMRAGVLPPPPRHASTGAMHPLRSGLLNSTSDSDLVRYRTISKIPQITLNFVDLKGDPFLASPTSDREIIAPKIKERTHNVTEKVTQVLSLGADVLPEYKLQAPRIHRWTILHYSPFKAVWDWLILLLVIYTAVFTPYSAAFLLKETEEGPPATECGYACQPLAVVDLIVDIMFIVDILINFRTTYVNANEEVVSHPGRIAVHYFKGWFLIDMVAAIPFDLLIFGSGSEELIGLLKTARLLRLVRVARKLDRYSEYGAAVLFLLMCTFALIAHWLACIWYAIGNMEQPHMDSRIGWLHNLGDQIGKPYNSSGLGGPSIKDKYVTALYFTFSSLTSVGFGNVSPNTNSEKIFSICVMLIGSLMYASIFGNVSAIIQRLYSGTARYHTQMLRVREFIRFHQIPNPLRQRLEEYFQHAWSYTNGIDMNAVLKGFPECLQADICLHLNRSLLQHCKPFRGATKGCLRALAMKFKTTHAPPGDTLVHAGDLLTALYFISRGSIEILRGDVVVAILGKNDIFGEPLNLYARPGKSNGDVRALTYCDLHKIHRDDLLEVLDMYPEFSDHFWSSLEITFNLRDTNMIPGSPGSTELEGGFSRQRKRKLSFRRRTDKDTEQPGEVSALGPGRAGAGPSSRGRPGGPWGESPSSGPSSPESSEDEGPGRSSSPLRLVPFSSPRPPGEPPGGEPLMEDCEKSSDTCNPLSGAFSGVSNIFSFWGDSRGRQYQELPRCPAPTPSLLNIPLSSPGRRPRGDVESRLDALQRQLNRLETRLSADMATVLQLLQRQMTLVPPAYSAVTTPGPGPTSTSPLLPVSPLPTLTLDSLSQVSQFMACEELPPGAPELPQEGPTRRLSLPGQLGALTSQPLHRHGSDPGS
row,Compound,"hERG current change (%, negative = inhibition) at 10uM"
1,Cc1cnc(NC(=O)CSc2nnc(COc3c(C)cccc3C)o2)s1,11.6%
2,Cc1ccc(OCCCCn2cnc3ccccc32)cc1.Cl,-49%
3,O=C(CN(Cc1ccc(Cl)cc1)C(=O)CNS(=O)(=O)c1ccccc1)NCC1CCCO1 (centres unmarked),-2.18%
4,O=C(O)COc1ccc(/C=N/NC(=O)C2CCCN2S(=O)(=O)c2ccc(Cl)cc2)cc1 (centres unmarked),17.9%
5,CCOC(=O)CNC(=O)COc1ccc(Cl)cc1Br,-19.5%
6,CCOc1ccccc1C(=O)N1CCC(C(=O)c2ccc(F)cc2)CC1,-25.2%
7,COc1ccc(NC(=O)c2ccco2)cc1S(=O)(=O)N1CCOCC1,10.8%
8,CCC(=O)Nc1nnc(Sc2ccc(N(C)C)cc2)s1,-9.98%
9,N#CCC(=O)Nc1ccccc1C(=O)O,-6.59%
10,CCOC(=O)c1sc(NC(=O)C2CC=CCC2C(=O)O)nc1C (centres unmarked),7.39%
11,CSc1nccc(N2CCN(c3ccc(F)cc3)CC2)n1,-35%
12,CC(=O)Oc1ccc2c(=O)c(-c3ccccc3)c(C)oc2c1,16.2%
13,O=C(COc1ncnc2ccccc12)N1CCN(c2ccccc2)CC1,-4.07%
14,COc1ccc(CCNC(=O)c2cc3cccc(OC)c3oc2=O)cc1OC,12.1%
15,O=C(CN1CCC(NC(=O)c2cccc(F)c2)CC1)NCc1ccccc1F,-20.2%
16,Cc1ccn2cc(CCNC(=O)CC3CCCCC3)nc2c1,-32.3%
17,Cn1cnnc1Sc1ccc(S(C)(=O)=O)cc1[N+](=O)[O-],13%
18,O=C(Nc1ccccc1)OCc1cc(-c2ccccc2Cl)on1,6.09%
19,COc1ccc(C(=O)NCC(=O)N/N=C/c2ccco2)cc1OC,25.9%

row,Compound,"hERG current change (%, negative = inhibition) at 10uM"
1,COc1cccc(-n2ccnc2SCC(=O)NCc2ccccc2)c1,1.75%
2,CCOC(=O)C(=NCCCN(C)C)NNc1cc(C(F)(F)F)ccc1Cl,-18.5%
3,O=c1cnn(Cc2ccc(F)cc2)c2ccccc12,-13.6%
4,CCOC(=O)c1cc(C)sc1NC(=O)C(c1ccccc1)c1ccccc1,14.5%
5,Cc1ccc(/C=C/C(=O)Nc2cc(S(=O)(=O)N3CCCCCC3)ccc2OCC(F)(F)F)o1,-45.3%
6,Cc1cc(C2(c3cc(C)c(NC(=O)CN4CCOCC4)c(C)c3)CCCCC2)cc(C)c1NC(=O)CN1CCOCC1,2.19%
7,CCc1ccc(C(=O)CCC2CCCCC2=O)cc1 (centres unmarked),-5.71%
8,CC(C)c1ccc(CN2CCC(Oc3ccc(C(=O)N4CCCC4)cc3)CC2)cc1,-71.6%
9,COC(=O)c1ccc(C(=O)OC)c(NC(=O)CN2CCN(c3ccccc3OC)CC2)c1,-6.1%
10,CC12CCC(C(=O)N(CC(=O)O)C1=O)C2(C)C (centres unmarked),24.6%
11,O=c1cc(CSc2nnc(NC3CCCCC3)s2)nc2sccn12,-28.1%
12,COCCN1C(=O)N[C@@H](c2ccccc2)[C@H](C(C)=O)[C@H]1C,3.61%
13,COc1cc(C(=O)N/C(=C\c2cn(S(=O)(=O)N(C)C)c3ccccc23)C(=O)N2CCCC2)cc(OC)c1OC,10.9%
14,Cc1cc(C(=O)OCC(=O)NC(C)c2ccc(F)cc2)c(C)o1 (centres unmarked),11.2%
15,Cc1ccc(NC(=O)CN(C)C(=O)Cn2c(=O)oc3ccccc32)cc1,-1.09%
16,O=C(COc1ccccc1)N(Cc1cccc(F)c1)C1CCS(=O)(=O)C1 (centres unmarked),-15.5%
17,Cc1ccc(-c2nc(SC(C)C(=O)c3c(N)n(C)c(=O)n(C)c3=O)n[nH]2)cc1 (centres unmarked),4.53%
18,CCOc1ccc(NC(=O)C2CCN(S(C)(=O)=O)CC2)cc1,22.2%
19,O=C(Cc1ccccc1)Nc1ccc(NC(=O)c2cccs2)cc1,17.5%

row,Compound,"hERG current change (%, negative = inhibition) at 10uM"
1,CN1CN(C)C(c2ccncc2)=C1c1ccncc1,19.5%
2,Cc1ccc(-c2cccc(C3CC=CC4C3C(=O)N(Cc3ccccc3)C4c3ccc4ccccc4c3)c2)cc1 (centres unmarked),18.8%
3,Cc1ccc(C(=O)O)cc1N=Nc1c(O)[nH]c(=O)[nH]c1=O,25.4%
4,O=C(O)/C(=C/c1ccco1)c1ccccc1,33%
5,O=C(Nc1nc(-c2nc3ccccc3s2)cs1)c1ccc(S(=O)(=O)N2CCOCC2)cc1,-4.79%
6,CC(C)c1nc(SCc2ccccn2)c2c(=O)n(C)c(=O)n(C)c2n1,5.32%
7,CCOc1ccc(C(=O)C(C)=O)c(OCC)c1,9.68%
8,COc1ccc2c(c1OC)C(=O)N1C2SC(C)(C)[C@H]1C(=O)NCCCOC(C)C (some centres unmarked),24.2%
9,CC1CCN(CC(CS(=O)(=O)c2ccc([N+](=O)[O-])cc2)N2CCC(C)CC2)CC1 (centres unmarked),-62.1%
10,Nc1nn2c(-c3ccccc3)cc(=O)[nH]c2c1N=Nc1ccc(O)cc1,-4.22%
11,O=c1[nH]c(CN2CCN(S(=O)(=O)/C=C/c3ccccc3)CC2)nc2ccccc12,-66.5%
12,CCCc1nnc(NC(=O)CCS(=O)(=O)Cc2ccccc2)s1,-18.6%
13,COc1cc2c(cc1OC)CC1(CCCCC1)N=C2.Cl,-26.2%
14,COCCn1c(SCC(=O)N(C(C)C)C(C)C)nnc1-c1cc2ccccc2cc1O,-15.8%
15,CC1CCN(S(=O)(=O)c2ccc3c(c2)c(=O)c(C(=O)NCc2cccs2)cn3C)CC1,-4.13%
16,CS(=O)(=O)Nc1ccc(Cc2ccc(NS(C)(=O)=O)cc2)cc1,-12%
17,O=C(O)c1cc(S(=O)(=O)Nc2ccc(OCc3ccccc3)cc2)ccc1Br,15%
18,COC(=O)c1ccc(N(CC(=O)NCC2CCCO2)C(=O)CCC(=O)Nc2cc(C)on2)cc1 (centres unmarked),11.9%
